Experimental data as given in PubChem BioAssay AID588591 (National Center for Advancing Translational Sciences (NCATS), 2011).
Screen size: about 390,000 compounds; about 4,700 (1.2%) were called active. Inconclusive results, whose numbers are uncertain, are shown with a selection of clear calls. The call rests on the fitted dose curve; in most records, active means well fitted inhibition curve with a large enough effect; inconclusive means small, poorly fitted or top-dose-only effect, or another doubt; inactive means no such curve, though single readings can be large or run the other way. Potencies beside an inconclusive call are fits to weak or partial responses and may not hold up.

What follows are compounds tested against DNA polymerase eta (Homo sapiens) (UniProt Q9Y253) (assay: qHTS for Inhibitors of Polymerase Eta). Conditions: recombinant Pol eta, fluorescent DNA replication assay; series mostly up to 114 µM; activity change, negative = inhibition: at the top concentration.
Sequence of UniProt Q9Y253 (Q9Y253 whole entry, looked up): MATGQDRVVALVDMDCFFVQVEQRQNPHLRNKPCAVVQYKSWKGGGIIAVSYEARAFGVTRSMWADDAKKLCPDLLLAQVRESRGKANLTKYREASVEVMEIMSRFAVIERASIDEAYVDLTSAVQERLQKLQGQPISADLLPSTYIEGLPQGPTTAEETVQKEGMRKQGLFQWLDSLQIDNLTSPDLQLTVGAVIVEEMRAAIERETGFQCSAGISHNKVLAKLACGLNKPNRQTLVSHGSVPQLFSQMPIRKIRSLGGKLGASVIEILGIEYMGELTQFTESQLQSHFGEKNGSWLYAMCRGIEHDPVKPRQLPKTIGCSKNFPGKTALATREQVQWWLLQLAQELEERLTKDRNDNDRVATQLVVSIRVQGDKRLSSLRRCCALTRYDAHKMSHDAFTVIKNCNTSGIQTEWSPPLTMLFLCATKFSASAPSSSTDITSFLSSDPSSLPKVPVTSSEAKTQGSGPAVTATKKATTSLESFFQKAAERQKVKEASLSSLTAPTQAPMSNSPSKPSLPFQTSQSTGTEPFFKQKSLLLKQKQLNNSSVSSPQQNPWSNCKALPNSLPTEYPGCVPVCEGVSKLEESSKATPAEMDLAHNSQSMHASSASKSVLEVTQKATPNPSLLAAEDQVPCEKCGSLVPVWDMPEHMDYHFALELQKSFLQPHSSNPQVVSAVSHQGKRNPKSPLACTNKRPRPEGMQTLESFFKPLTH
How it was run: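 Fluorescent replication assay: 50 nM final substrate added after a 15 min room-temperature compound preincubation with 10 nM enzyme. Signal taken at 0 min and again at 10 min.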
On the % scale 0 is the no-effect control and ±100 the full control effect; potency means the concentration at half of the fitted maximal effect; tags describe the fitted curve by direction and shape.

Compound	activity change, negative = inhibition	Potency
O=C(Cn1c(=O)c2cccn2c2ccc(F)cc21)NCc1cccc(Cl)c1	inactive: 1.41%	
Fc1ccc(CSc2nc3ncc(Br)cc3[nH]2)cc1		inconclusive: 25.1 µM [inhibitor, partial curve]
COc1ccc(/C=C/C(=O)O)cc1S(=O)(=O)N1CCc2ccccc21		inconclusive: 79.4 µM [inhibitor, partial curve]
Cc1ccc(-c2nnc(Nc3cccc(O)c3)c3ccccc23)cc1S(=O)(=O)NCCO		inconclusive: 56.2 µM [inhibitor, partial curve, poor fit]
O=C(c1cccc(S(=O)(=O)N2CCCC2)c1)N1CCN(S(=O)(=O)c2cccc(Cl)c2)CC1	inactive: -0.708%	
O=S(=O)(N/N=C\c1ccccc1O)c1ccc(Cl)cc1	inactive: 1.15%	
CC1CCC(C(C)C)C(=O)/C1=C/c1ccc(N)cc1 (stereo not drawn)		inconclusive: 79.4 µM [inhibitor, partial curve, poor fit]
Cc1c(Cl)cccc1NC(=O)Nc1c[nH]c(=O)[nH]c1=O	inactive: -1.43%	
O=C1NC(=Nc2ccccc2Cl)S/C1=C\c1cc([N+](=O)[O-])ccc1O		active: 79.4 µM
CCN(CC)CCCNC(=O)c1cn(CC)c2ccc(S(=O)(=O)N3CCC(C)CC3)cc2c1=O	inactive: -18.9%	
COc1ccc(Nc2nc3c(S(=O)(=O)c4ccccc4)nnn3c3ccc(Cl)cc23)cc1		inconclusive: 44.7 µM [inhibitor, partial curve]
Cc1ccc(CNC(=O)CCS(=O)(=O)c2ccc(Br)s2)cc1		inconclusive: 20 µM [inhibitor, partial curve, poor fit]
O=S(=O)(c1ccc(NC(=S)NN=Cc2ccccc2O)cc1)N1CCCCC1		inconclusive: 28.2 µM [inhibitor, partial curve, poor fit]
COc1cc([N+](=O)[O-])ccc1NC(=S)Nc1cc(C(=O)OC(C)C)cc(C(=O)OC(C)C)c1		inconclusive: 44.7 µM [inhibitor, partial curve, poor fit]
CCS(=O)(=O)N1CCCc2cc(C(=O)Nc3cc([N+](=O)[O-])ccc3C)ccc21	inactive: -8.06%	
CCOC(=O)/C=C1\SCC(=O)N1Cc1nnc(-c2ccccc2Br)o1		inconclusive: 12.6 µM [inhibitor, full curve, poor fit]
Cc1ccc(C2(C)NC(=O)N(CC(=O)c3ccc(Cl)s3)C2=O)cc1 (stereo not drawn)		inconclusive: 10 µM [inhibitor, full curve, poor fit]
CSc1cccc(NC(=O)C2CC(=O)N(Cc3ccccc3)C2)c1 (stereo not drawn)	inactive: -22.2%	
O=C(CSc1nn(-c2ccc(F)cc2)c(=S)s1)NC(=O)NCc1ccco1	inactive: 2.33%	
Nc1nccnc1C(=O)OCC(=O)NNC(=O)c1ccccc1		inconclusive: 89.1 µM [inhibitor, partial curve, poor fit]
COc1cccc2sc(Nc3nnc(-c4ccc(F)cc4)o3)nc12		active: 50.1 µM
CCOC(=O)C(C)N1C(=O)S/C(=C\c2ccc(-c3ccccc3C(=O)O)o2)C1=O (stereo not drawn)		active: 3.16 µM

Compound	activity change, negative = inhibition	Potency
Cc1cccc(OCC(=O)N=Nc2c(O)[nH]c3ccc([N+](=O)[O-])cc23)c1		inconclusive: 50.1 µM [inhibitor, partial curve, poor fit]
Cc1ccc(/C=N/NC(=O)c2ccc(NC(=O)c3ccc(Cl)cc3)cc2)o1		inconclusive: 79.4 µM [inhibitor, partial curve, poor fit]
O=C(CCCOc1ccccc1)Nc1nnc(C2CCCO2)s1 (stereo not drawn)		inconclusive: 22.4 µM [inhibitor, full curve, poor fit]
Cc1ccc(CC(=O)Nc2ccc(C(=O)N3CCCCC3)cc2)cc1		inconclusive: 79.4 µM [inhibitor, partial curve, poor fit]
CC1=Nc2cc(Cl)ccc2Oc2ccccc21		inconclusive: 79.4 µM [inhibitor, partial curve, poor fit]
CC/C(=N/Nc1ccccc1)c1cnnc(-c2ccccc2)n1		inconclusive: 6.31 µM [inhibitor, partial curve]
O=C(O)c1cccc(N2C(=O)c3cccc4cccc(c34)C2=O)c1	inactive: 8.81%	
Cc1cc(=O)[nH]c(N/N=C/C2=C(N3CCOCC3)C(=C\c3ccc(Cl)cc3)/CC2)n1		inconclusive: 15.8 µM [inhibitor, full curve, poor fit]
COCCN1Cc2cccc(C(=O)Nc3cc(C)cc(C)c3)c2C1=O	inactive: -20%	
COc1ccc(CN2CCN(CC(O)Cn3c4ccccc4c4ccccc43)CC2)cc1 (stereo not drawn)		inconclusive: 100 µM [inhibitor, partial curve, poor fit]
Cc1ccc2c(CN3CCN(S(=O)(=O)c4ccc(Cl)cc4)CC3)cc(=O)oc2c1C	inactive: -11.4%	
Cc1ccc(C)c(NC(=O)Nc2cc3c(cc2N2CCCCC2)n(C)c(=O)n3C)c1	inactive: -22.4%	
CCOC(=O)c1sc2cc([N+](=O)[O-])cc(SCCO)c2c1N		inconclusive: 15.8 µM [inhibitor, partial curve]
O=C(Cc1ccc(Cl)cc1)Nc1ccc(N2CCN(C(=O)c3ccco3)CC2)cc1		inconclusive: 22.4 µM [inhibitor, partial curve]
Cc1ccc(/C=C/c2onc(C)c2S(=O)(=O)N2CCC(C(=O)N3CCN(C)CC3)CC2)cc1		inconclusive: 89.1 µM [inhibitor, partial curve, poor fit]
O=c1cc(Br)c(O)c(Br)cc1Br		active: 17.8 µM
O=C(N/N=C/c1ccc(-c2ccc(S(=O)(=O)Nc3ncccn3)cc2)o1)c1cc2ccccc2cc1O		active: 0.891 µM
O=C(Nc1ccc2oc(-c3ccc4ccccc4c3)nc2c1)c1cccs1		inconclusive: 14.1 µM [inhibitor, partial curve]
Cc1cc(/C=C2/C(=N)N3C(=NC2=O)SN=C3S(C)(=O)=O)c(C)n1-c1ccccc1		active: 44.7 µM
COc1cccc(N(C(=O)Cn2nnc(-c3cccs3)n2)C(C(=O)NC2CCCCC2)c2ccncc2)c1 (stereo not drawn)		inconclusive: 2 µM [inhibitor, partial curve, poor fit]
O=C1c2ccccc2C(=O)N1CCC(c1ccc(F)cc1)c1ccco1 (stereo not drawn)		inconclusive: 31.6 µM [inhibitor, partial curve]
